# Reference: PubChem BioAssay (Tox21)
# “And” between values parts separate entries of the source, which are not always exact repeats. Identical values can stand only once. Inconclusive means that the source gave no clear call. Such entries were picked first, then a sample of the others. Where the call is inconclusive, the potency comes from a doubtful curve fit. The source made the active and inactive calls. Unless noted, the call rests on the fitted dose curve; in most records, active means well fitted curve in the direction sought with a large enough effect in the repeat runs; inconclusive means weak or mixed curves; inactive means no such curve, though single readings can be large; an effect the other way counts as inactive or inconclusive.
# Key:
# [1] = qHTS assay for small molecule agonists of the p53 signaling pathway - cell viability (AID 651633; calls by dose curve; further: nearly all actives have a fitted effect of over 30% in size)
# Procedure, shortened: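 Viability counter-read: CellTiter-Glo luminescence (30 min, room temperature) in the same p53RE-bla plates. These plates had been exposed to compounds for 16 h at 37 C.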
# [2] = qHTS assay for small molecules that induce genotoxicity in human embryonic kidney cells expressing luciferase-tagged ATAD5 - cell viability (AID 651634; calls by dose curve; further: nearly all actives have a fitted effect of over 25% in size)
# Procedure, shortened: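 Viability read: CellTiter-Fluor fluorescence, 30 min at 37C. Cells: HEK293T, luciferase-tagged ATAD5. Exposure: 15.5 hr, 37C, 5% CO2, compound or DMSO vehicle.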
# [3] = target: Glucocorticoid receptor (Homo sapiens) (UniProt P04150); assay: qHTS assay to identify small molecule agonists of the glucocorticoid receptor (GR) signaling pathway (AID 720691; active means well fitted activation curve with a large enough effect in the signal ratio in the repeat runs, not every such curve was filed as active; inconclusive means weak or mixed curves, or effect the other way; inactive means no such curve, though single readings can be large or run the other way; the % refers to the signal ratio; on activation: on the % scale 0 is the no-effect control and ±100 the full control effect); conditions: GR-bla HeLa, beta-lactamase reporter ratio, 18 h; activation: at 62.4 µM (top of the series) unless noted
# UniProt P04150, sequence (P04150 whole entry, looked up): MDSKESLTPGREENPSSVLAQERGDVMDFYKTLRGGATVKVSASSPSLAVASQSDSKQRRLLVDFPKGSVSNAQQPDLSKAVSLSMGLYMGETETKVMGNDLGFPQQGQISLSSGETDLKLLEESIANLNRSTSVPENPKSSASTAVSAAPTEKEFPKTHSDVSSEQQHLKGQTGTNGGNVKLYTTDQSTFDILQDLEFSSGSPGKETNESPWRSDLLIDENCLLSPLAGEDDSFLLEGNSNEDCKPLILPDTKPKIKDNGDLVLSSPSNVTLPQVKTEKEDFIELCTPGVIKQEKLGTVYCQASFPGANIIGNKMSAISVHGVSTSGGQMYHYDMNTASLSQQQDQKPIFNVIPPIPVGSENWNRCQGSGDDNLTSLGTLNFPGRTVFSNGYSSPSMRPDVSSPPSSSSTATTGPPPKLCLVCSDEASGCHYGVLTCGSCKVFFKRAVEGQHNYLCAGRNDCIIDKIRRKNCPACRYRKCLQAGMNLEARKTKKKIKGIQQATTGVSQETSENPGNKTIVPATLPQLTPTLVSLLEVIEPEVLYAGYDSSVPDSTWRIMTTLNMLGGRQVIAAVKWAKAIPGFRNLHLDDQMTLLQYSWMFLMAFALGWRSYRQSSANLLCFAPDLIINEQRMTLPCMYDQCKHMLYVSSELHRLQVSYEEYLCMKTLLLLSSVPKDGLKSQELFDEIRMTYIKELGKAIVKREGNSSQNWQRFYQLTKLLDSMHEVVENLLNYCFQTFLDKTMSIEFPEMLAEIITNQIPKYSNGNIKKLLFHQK
# Procedure, shortened: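 qHTS in GR-bla HeLa cells: 4 h settling at 37 C/5% CO2, 18 h compound incubation at 37 C, 2 h LiveBLAzer B/G FRET substrate at room temperature, fluorescence intensity measured.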
# [4] = target: Glucocorticoid receptor (Homo sapiens) (UniProt P04150); assay: qHTS assay to identify small molecule antagonists of the glucocorticoid receptor (GR) signaling pathway (AID 720692; active means well fitted inhibition curve with a large enough effect in the signal ratio in the repeat runs, not every such curve was filed as active; inconclusive means weak or mixed curves, or effect the other way; inactive means no such curve, though single readings can be large or run the other way; the % refers to the signal ratio; on activity change, negative = inhibition: on the % scale 0 is the no-effect control and ±100 the full control effect); conditions: GR-bla HeLa, beta-lactamase FRET ratio, dexamethasone-stimulated, 18 h
# Procedure, shortened: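 Inhibition of glucocorticoid signalling is measured in HeLa cells with a GRE-controlled beta-lactamase reporter; cells are co-treated with compound and 5 nM dexamethasone (final) for 18 h before FRET substrate readout.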
# [5] = qHTS assay for small molecules that induce genotoxicity in human embryonic kidney cells expressing luciferase-tagged ATAD5 (AID 651632); further: nearly all actives have a fitted effect of over 15% in size; on activation: on the % scale 0 is the no-effect control and ±100 the full control effect
# Procedure, shortened: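 Luminescent reporter readout, HEK293T ATAD5-luc line: 16 hr drug exposure (37C, 5% CO2) followed by Amplite, 30 min RT.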
# [6] = qHTS assay for small molecule disruptors of the mitochondrial membrane potential - cell viability (AID 720634; calls by dose curve; further: nearly all actives have a fitted effect of over 20% in size)
# Procedure, shortened: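 HepG2, 1 hr compound, 37 C. ATP luminescence via CellTiter-Glo, 30 min RT, same well as m-MPI.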
# [7] = qHTS assay for small molecule disruptors of the mitochondrial membrane potential (AID 720635); conditions: HepG2 mitochondrial membrane potential, Mito-MPS dye ratio; on ratio activity, negative = MMP loss: on the % scale 0 is the no-effect control and ±100 the full control effect
# Procedure, shortened: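 Mitochondrial membrane potential tracked with Mito-MPS dye, red aggregates (ex 540/em 590 nm) against green monomers (ex 490/em 535 nm). Compound treatment 1 hr at 37C, dye 30 min in HepG2.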
# [8] = activity change, negative = inhibition: at 58.5 µM (top of the series) unless noted
# [9] = ratio activity, negative = MMP loss: at 83.2 µM (top of the series) unless noted
# Potency means the concentration at half of the fitted maximal effect; tags describe the fitted curve by direction and shape or compound fluorescence and quenching.
smiles,measurement,setting,value
Nc1ccc(Cl)cc1[N+](=O)[O-],Potency,[1],"inconclusive: 67.9 µM [cytotoxic, single point]"
same,Potency,[2],"inconclusive: 42.8 µM [falling, partial curve, poor fit]"
same,activation,[3],inconclusive: -16.9%
same,"activity change, negative = inhibition",[4]; [8],inconclusive: 27.7%
CC(=O)OC(OC(C)=O)c1ccc([N+](=O)[O-])o1,Potency,[5],"inconclusive: 69.8 µM [activator, single point]"
same,Potency,[1],"inconclusive: 62.2 µM [cytotoxic, single point]"
same,Potency,[6],"inconclusive: 69.8 µM [cytotoxic, single point]"
same,Potency,[7]; [9],active: 31.2 µM
same,activation,[3],inconclusive: -18.5% [at 79.2 µM]
O=c1c(O)c(-c2ccc(O)c(O)c2)oc2cc(O)cc(O)c12,Potency,[1],"inconclusive: 61.6 µM [cytotoxic, single point] and inconclusive: 77 µM [cytotoxic, partial curve, poor fit]"
C[C@]12C=CC(=O)C=C1CC[C@H]1[C@@H]3C[C@@H](O)[C@](O)(C(=O)CO)[C@@]3(C)C[C@H](O)[C@@]12F,Potency,[5],"inconclusive: 11.9 nM [activator, full curve, poor fit] and inactive"
same,Potency,[3],active: 301 nM and active: 61.6 nM
same,Potency,[4]; [8],"inconclusive: 120 nM [activator, full curve] and inconclusive: 54.9 nM [activator, full curve]"
Cc1cn([C@H]2C[C@H](F)[C@@H](CO)O2)c(=O)[nH]c1=O,Potency,[5],inactive
same,Potency,[7]; [9],inactive
same,Potency,[4]; [8],inactive
Cc1cccc(Oc2ccccc2)c1,Potency,[5],inactive
same,Potency,[7]; [9],inactive
c1ccc2[nH]c(-c3cscn3)nc2c1,Potency,[5],"inconclusive: 13.3 µM [activator, partial curve] and inconclusive: 38.8 µM [activator, partial curve] and inconclusive: 30.6 µM [activator, partial curve, poor fit]"
same,Potency,[7]; [9],"inconclusive: 23.7 µM [rising, partial curve] and inconclusive: 54.8 µM [rising, partial curve] and inconclusive: 27.3 µM [rising, partial curve]"
same,"activity change, negative = inhibition",[4]; [8],inconclusive: -18.6% [at 78.9 µM]
same,"activity change, negative = inhibition",[4]; at 58.5 µM (top of the series),inactive: -0.448% and inactive: -3.29%
COC(=O)c1ccc(C(=O)OC)c(C(=O)OC)c1,Potency,[5],inactive
same,Potency,[4]; [8],inactive
CCCCCCCCCCCCCC[N+](C)(C)Cc1ccccc1,Potency,[1],active: 23.7 µM and active: 69.6 µM
same,Potency,[2],"inconclusive: 33.5 µM [falling, partial curve, poor fit]"
same,Potency,[6],"inconclusive: 29.8 µM [cytotoxic, partial curve, poor fit] and active: 62.1 µM"
same,Potency,[7]; [9],active: 11.9 µM and active: 27.7 µM
same,Potency,[3],"inconclusive: 26.8 µM [cytotoxic, single point] and inconclusive: 14 µM [cytotoxic, full curve]"
same,Potency,[4]; [8],"inconclusive: 26.8 µM [cytotoxic, single point] and inconclusive: 39.5 µM [cytotoxic, partial curve]"
O=C1CCCCCCCCCCCN1,Potency,[1],inactive
same,Potency,[2],inactive
same,"ratio activity, negative = MMP loss",[7]; at 83.2 µM (top of the series),inactive: -20.8%
same,"ratio activity, negative = MMP loss",[7]; [9],inconclusive: -39.3%
CC(C(=O)O)c1ccc(CC2CCCC2=O)cc1 (centres undefined),Potency,[5],inactive
same,Potency,[7]; [9],inactive
CCN(CC)C(C)=O,Potency,[1],inactive
CCCC1O[C@@H]2C[C@H]3[C@@H]4CCC5=CC(=O)C=C[C@]5(C)[C@H]4[C@@H](O)C[C@]3(C)[C@]2(C(=O)CO)O1 (some centres undefined),Potency,[5],"inconclusive: 0.006 µM [activator, full curve, poor fit]"
same,"ratio activity, negative = MMP loss",[7]; at 83.2 µM (top of the series),inactive: 16.7%
same,Potency,[7]; [9],"inconclusive: 68.6 µM [inhibitor, partial curve, poor fit]"
same,"ratio activity, negative = MMP loss",[7]; [9],inconclusive: -23.8%
CC(O)C#CC(C)O (centres undefined),Potency,[5],"inconclusive: 67.9 µM [activator, partial curve, poor fit]"
same,Potency,[1],"inconclusive: 67.9 µM [cytotoxic, single point]"
same,Potency,[7]; [9],"inconclusive: 53.9 µM [activator, partial curve, poor fit]"
same,Potency,[4]; [8],"inconclusive: 61.1 µM [cytotoxic, single point]"
COc1ccc(N=[N+]([O-])c2ccc(OC)cc2)cc1,Potency,[5],active: 0.136 µM
same,Potency,[6],"inconclusive: 60.5 µM [cytotoxic, single point]"
same,Potency,[7]; [9],active: 27 µM
same,Potency,[4]; [8],"inconclusive: 0.61 µM [activator, partial curve]"
